# Data as given in article PMC4336329 (PLoS ONE, 2015).
# About 14,000 (4.5%) of roughly 310,000 compounds showed an effect of 50% or more. The effect is printed as a negative number. The list shows a part of the results.
# Molecular target: human ether-à-go-go-related gene (hERG) potassium channel (human, UniProt Q12809)
# Assay: primary screen, population patch clamp on CHO cells stably expressing hERG
# 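Also: peak tail current of the secondary pulse compared with the same well before compound.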
# Chain of human ether-à-go-go-related gene (hERG) potassium channel (Q12809 whole entry, looked up): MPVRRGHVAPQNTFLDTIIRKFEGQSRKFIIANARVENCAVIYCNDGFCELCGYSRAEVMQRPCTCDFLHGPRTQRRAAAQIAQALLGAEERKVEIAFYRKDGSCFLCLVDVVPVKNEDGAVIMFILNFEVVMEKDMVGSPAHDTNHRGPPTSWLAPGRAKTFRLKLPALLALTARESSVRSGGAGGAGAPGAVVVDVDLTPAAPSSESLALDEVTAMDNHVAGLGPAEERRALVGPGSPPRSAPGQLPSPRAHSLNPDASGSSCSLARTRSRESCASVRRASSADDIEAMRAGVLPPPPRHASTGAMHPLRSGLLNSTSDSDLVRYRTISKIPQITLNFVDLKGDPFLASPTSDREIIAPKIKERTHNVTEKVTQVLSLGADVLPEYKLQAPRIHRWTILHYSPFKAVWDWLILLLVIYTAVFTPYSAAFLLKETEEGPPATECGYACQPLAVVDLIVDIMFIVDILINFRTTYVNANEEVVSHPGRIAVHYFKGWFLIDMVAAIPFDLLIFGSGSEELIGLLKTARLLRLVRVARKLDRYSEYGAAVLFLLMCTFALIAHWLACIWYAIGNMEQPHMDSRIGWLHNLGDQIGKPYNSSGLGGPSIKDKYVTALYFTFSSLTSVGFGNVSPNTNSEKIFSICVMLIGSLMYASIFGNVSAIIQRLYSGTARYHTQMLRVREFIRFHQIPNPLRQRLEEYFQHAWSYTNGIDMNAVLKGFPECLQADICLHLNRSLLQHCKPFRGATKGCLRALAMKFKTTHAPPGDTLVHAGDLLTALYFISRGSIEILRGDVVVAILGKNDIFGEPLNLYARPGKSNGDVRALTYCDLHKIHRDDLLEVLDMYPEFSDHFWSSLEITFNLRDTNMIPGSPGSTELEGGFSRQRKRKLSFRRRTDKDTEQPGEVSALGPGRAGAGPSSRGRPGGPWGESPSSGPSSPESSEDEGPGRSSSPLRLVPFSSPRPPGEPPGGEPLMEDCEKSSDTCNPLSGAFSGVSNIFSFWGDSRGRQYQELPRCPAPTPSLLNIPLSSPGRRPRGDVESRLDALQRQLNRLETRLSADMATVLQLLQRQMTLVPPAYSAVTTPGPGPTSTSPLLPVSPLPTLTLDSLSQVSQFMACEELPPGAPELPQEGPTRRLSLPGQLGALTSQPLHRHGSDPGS
row,SMILES,"hERG current change (%, negative = inhibition) at 10uM [%]"
1,CCC(=O)Nc1ccc(C(=O)Cn2ncc(Cl)c(Cl)c2=O)cc1,-5.04
2,CCC1(CC)C(=O)N(C)C(=O)NC1=NCc1ccccc1,-4.02
3,CCN(CC)CCNC(=O)c1ccc2c(c1NCCO)C(=O)c1ccccc1C2=O,-28.5
4,O=C(O)CC(NC(=O)C12CC3CC(CC(C3)C1)C2)c1ccc(F)cc1 (stereo not drawn),17.6
5,Cc1ccc(NC(=S)N(CCN(C)C)Cc2cc3cc(C)cc(C)c3[nH]c2=O)cc1,-7.41
6,N#Cc1ccc(C23CC4(C2)[C@H](CN(Cc2ccc(C(F)(F)F)cc2)[C@@H]4c2ccccc2)C3c2ccc(C(F)(F)F)cc2)cc1 (stereo partly drawn),16.8
7,COc1cc(C(=O)NC(c2ccccc2)c2ccccc2)cc(OC)c1C,15.2
8,CC(=O)/C=C/c1ccc2ccccc2n1,-0.352
9,CCC(C)n1[nH]c(=O)c2c(C)cc(C)nc21 (stereo not drawn),16.1
10,CCOC(=O)c1ccccc1NC(=O)C1=COCCO1,9.9
11,CCC(=O)c1cn(CC(=O)O)c2ccccc12,24.8
12,CS(=O)(=O)Nc1ccc(C2=NN(S(C)(=O)=O)C(c3ccccc3)C2)cc1 (stereo not drawn),-73.6
13,COc1cccc(Oc2cn[nH]c2-c2ccc(O)cc2O)c1,-5.4
14,CC(=O)N(C)c1ccc(NS(=O)(=O)c2cc(Cl)ccc2Cl)cc1,3.49
15,CCN(CC)P(=O)(NC(=O)C(Cl)(Cl)Cl)N(CC)CC.[Cl-].[Cl-].[Cl-].[Nd+3],6.12
16,CCOC(=O)C(/C(C)=N/NC(=O)c1ccccc1[N+](=O)[O-])C(C)C (stereo not drawn),-1.38
17,Cc1ccccc1Cn1cnc2c(oc3ccccc32)c1=O,9.69
18,COc1ccc(N2C(=O)CS(=O)C(c3ccccc3)C2=O)cc1 (stereo not drawn),-7.59
19,CCOC(=O)/C(C#N)=C/c1ccc(OCC(=O)Nc2ccc(C)c(C)c2)c(OC)c1,6.06
20,CCNC(=O)CC1SC(=Nc2ccc(Cl)cc2)N(CC)C1=O (stereo not drawn),-0.837
21,CCOC(=O)c1ccc(NC(=O)C2CCCN(S(=O)(=O)c3ccc(F)cc3)C2)cc1 (stereo not drawn),-15.1
22,COC(=O)CN1C(=O)C2(C(C#N)=C(N)Oc3ccccc32)C2=C1CC(C)(C)CC2=O (stereo not drawn),17.1
23,O=C(Nc1cc(Cl)ccc1F)c1ccc(-n2cncn2)c([N+](=O)[O-])c1,-30.1
24,O=S(=O)(NC1CC1)c1ccc2c3c(cccc13)CC2,6.08
